Source: publication PMC4336329 (PLoS ONE, 2015)
The campaign covered roughly 310,000 compounds. About 2,200 (0.71%) showed an effect of 50% or more. The effect is printed as a negative number. Some of the results follow.

Each compound was assayed against human ether-à-go-go-related gene (hERG) potassium channel (human, UniProt Q12809) (assay: primary screen, population patch clamp on CHO cells stably expressing hERG).
Sequence of human ether-à-go-go-related gene (hERG) potassium channel (Q12809 whole entry, looked up): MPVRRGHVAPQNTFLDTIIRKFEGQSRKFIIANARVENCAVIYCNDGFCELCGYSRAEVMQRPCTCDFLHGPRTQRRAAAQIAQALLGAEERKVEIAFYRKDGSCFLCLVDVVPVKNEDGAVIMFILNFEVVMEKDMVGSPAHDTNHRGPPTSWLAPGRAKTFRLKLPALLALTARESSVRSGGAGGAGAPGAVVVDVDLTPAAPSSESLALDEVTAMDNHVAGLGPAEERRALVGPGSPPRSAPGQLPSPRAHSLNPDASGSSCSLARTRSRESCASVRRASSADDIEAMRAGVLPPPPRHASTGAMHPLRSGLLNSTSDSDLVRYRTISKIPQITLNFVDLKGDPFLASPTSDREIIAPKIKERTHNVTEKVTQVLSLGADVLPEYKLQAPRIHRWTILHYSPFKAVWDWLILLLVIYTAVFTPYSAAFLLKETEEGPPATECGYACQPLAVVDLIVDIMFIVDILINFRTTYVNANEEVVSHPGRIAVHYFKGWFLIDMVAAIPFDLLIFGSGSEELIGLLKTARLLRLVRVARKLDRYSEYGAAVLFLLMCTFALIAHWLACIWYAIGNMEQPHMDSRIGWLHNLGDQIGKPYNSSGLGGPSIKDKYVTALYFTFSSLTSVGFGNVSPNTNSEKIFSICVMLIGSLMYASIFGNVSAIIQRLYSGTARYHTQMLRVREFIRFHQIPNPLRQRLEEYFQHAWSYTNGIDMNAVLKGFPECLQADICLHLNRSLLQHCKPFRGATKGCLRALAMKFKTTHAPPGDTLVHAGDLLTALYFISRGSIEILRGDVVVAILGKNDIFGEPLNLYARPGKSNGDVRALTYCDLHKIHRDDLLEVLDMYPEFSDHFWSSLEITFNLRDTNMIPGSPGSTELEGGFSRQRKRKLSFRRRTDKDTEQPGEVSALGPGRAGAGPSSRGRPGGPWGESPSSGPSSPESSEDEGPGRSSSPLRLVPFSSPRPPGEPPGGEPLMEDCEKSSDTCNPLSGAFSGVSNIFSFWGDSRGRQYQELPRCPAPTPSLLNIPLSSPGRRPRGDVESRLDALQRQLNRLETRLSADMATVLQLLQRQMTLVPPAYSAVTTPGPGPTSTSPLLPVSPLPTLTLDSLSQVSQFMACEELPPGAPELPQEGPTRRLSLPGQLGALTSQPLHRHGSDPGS

SMILES | hERG current change (%, negative = inhibition) at 1uM [%]
O=C(c1cc2sccc2n1Cc1ccc(F)cc1)N1CCN(c2nc3ccccc3s2)CC1 | 9.22
O=C(CSc1ncnc2c1oc1ccccc12)Nc1cccc(Cl)c1 | -2.44
O=C(CN1C(=O)NC2(CCCCC2)C1=O)NCCCSc1ccccc1 | 9.47
CC(=O)Nc1cccc(NC(=O)CSc2nc(=O)n(CCN3CCOCC3)c3c2CCCC3)c1 | 8.3
CCCc1cc(=O)[nH]c(SC/C=C/c2ccccc2)n1 | 16
COc1ccc(S(=O)(=O)N2CN3CCN(C3)C2)cc1 | 12.3
Br.c1ccc2c(c1)ncn2CCN1CCCCC1 | 12
CCN(CC)C(=O)CCCC(=O)N(CC)CC | 11.9
CSC1=C(C#N)C(c2ccc(C(C)C)cc2)CC(=O)N1 (stereo not drawn) | 9.35
Cc1ccc2c(C)c(C(=O)N3CCN(Cc4ccc5c(c4)OCO5)CC3)oc2c1C | 14.1
O=C(Nc1ccc(N2CCN(C(=O)c3ccco3)CC2)cc1)c1ccccc1F | 11.6
NC(=O)c1c(NC(=O)c2cccnc2)sc2c1CCCC2 | 8.63
CC(CN(C)C)CN1c2ccccc2Sc2ccccc21.O=C(O)C(O)C(O)C(=O)O (stereo not drawn) | -6.57
COc1cccc(NS(=O)(=O)c2cc3c(cc2C)N(C)CCO3)c1 | 17.1
CS(=O)(=O)c1ccccc1-c1nnc(NC(=O)c2ccc(S(=O)(=O)N3CCCC3)cc2)o1 | 16.7
CCOC(=O)c1ccc(Oc2nc(NC)nc(OC)n2)cc1 | 11.8
COc1ccc(C(CCNC(C)c2ccccc2)C(C)C)cc1 (stereo not drawn) | 3.64
Cc1nn(C(C)C(=O)NC2C(=O)N3C(C(=O)O)=C(CSc4nnnn4C)CSC23)cc1Cl (stereo not drawn) | 11.5
O=S(=O)(c1ccc(SCc2ccccc2F)nc1)N1CCCC1 | 8.97

SMILES | hERG current change (%, negative = inhibition) at 1uM [%]
O=C(Cc1ccccc1F)Nc1ccccc1-c1ccccc1 | 16.3
CCCCNS(=O)(=O)c1ccc(OC)cc1 | 12.1
O=C(Cn1c(C(=O)N2CCc3ccccc3C2)cc2sccc21)c1ccccc1 | 7.57
O=C(NCc1ccncc1)C1CCN(S(=O)(=O)c2ccc(F)cc2)CC1 | 7.36
COc1ccc(Cn2nnnc2C(c2ccccn2)N2CCN(c3cc(Cl)ccc3C)CC2)cc1 (stereo not drawn) | 4.32
Cc1c(C(=O)c2ccccc2)c(=O)n(C)c(=O)n1C | 9.65
N#Cc1cccc(NC(=O)Cn2cnc(S(=O)(=O)N3CCCC3)c2)c1 | 12.5
CCOC(=O)c1ccc(NC(=O)Nc2ccn(C)n2)cc1 | 2
Cc1ccc(C)c(Oc2coc3cc(OC(=O)c4cccs4)ccc3c2=O)c1 | 9.17
CCc1cccc(C)c1NC(=O)CN1CCN(S(=O)(=O)c2ccc(C(C)(C)C)cc2)CC1 | 4.59
CCO/C(C)=C1/SC(=S)NC1=O | 8.44
CCN(CC(=O)Nc1cc(S(=O)(=O)N2CCCCC2)ccc1C)Cc1ccccc1 | 11.6
CC1=NN(Cc2ccccc2)C(=O)/C1=C/c1ccc(N(C)C)cc1 | 12.5
COc1ccc(-c2nsc(SCC(=O)NCC3CCCO3)n2)cc1 (stereo not drawn) | 16.6
CN(CC(=O)NCc1ccccn1)S(=O)(=O)c1ccc(F)cc1 | 2.7
Cc1ccc(Sc2ncccc2COC(=O)Nc2c(C)cccc2C)cc1 | 1.3
Cc1cc(-c2nc(C)c(C(=O)NN)s2)no1 | 15.8
CC1CCCCC1NC(=O)CCCCCn1c(=S)[nH]c2ccsc2c1=O (stereo not drawn) | 25.7
Cc1cc(NC(=O)COC(=O)c2ccc([N+](=O)[O-])cc2Cl)no1 | -0.0199

SMILES | hERG current change (%, negative = inhibition) at 1uM [%]
C/C(N)=C(/C#N)C(=O)COC(=O)c1ccc(C)c(S(=O)(=O)N2CCCCC2)c1 | 8.62
Cc1ccc(-c2nnn(CC(=O)N(Cc3cccs3)C(C(=O)NCC3CCCO3)c3ccco3)n2)o1 (stereo not drawn) | -0.222
O=C1c2ccccc2NC(c2ccccc2O)N1NS(=O)(=O)c1ccccc1 (stereo not drawn) | -1.21
Cc1nonc1NC(=O)CSc1nc2ccccc2cc1C#N | 11.7
Oc1ccc(Cl)cc1N=Nc1ccccc1 | 0.683
C=CCN(CC=C)C(=S)Nc1ccc(OC)c(OC)c1 | 5.85
CC(Oc1ccc(Cl)cc1)c1ccnn1S(=O)(=O)c1ccc(Cl)cc1 (stereo not drawn) | 7.5
CP(=O)(Nc1cc(Cl)ccc1Cl)c1nc2c(s1)CCCC2 (stereo not drawn) | 4.84
COc1ccc(N(CC(=O)NCc2ccc(Cl)cc2)S(=O)(=O)c2ccccc2[N+](=O)[O-])c(OC)c1 | 2.71
CC(CC(=O)NCCc1ccc(S(N)(=O)=O)cc1)c1ccccc1 (stereo not drawn) | 17.2
Cc1ccc(C)c(N=Cc2cc3c(cc2[N+](=O)[O-])OCO3)c1 | 13.5
COc1ccc([C@H]2CC(=O)C=C(c3cc(C)ccc3F)C2)cc1 | 9.63
C/C(=C/C(=O)N1CCc2ccccc21)C(=O)O | 6.02
c1cc(-c2nnc(-c3ccncc3)o2)ccn1 | 15.3
CC1(C)CC(NC(=O)C23CCC(C)(/C(=N/O)C2)C3(C)C)CC(C)(C)N1 (stereo not drawn) | 3.83
O=C(CNS(=O)(=O)/C=C/c1ccccc1)OCC(=O)N1CCC(Cc2ccccc2)CC1 | 1.78
CCOC(=O)C1CCN(S(=O)(=O)c2nc3nc(C)cc(C)n3n2)CC1 | 0.508
Cc1ccc2nc(-c3cccnc3)oc2c1 | 16.3
CCc1nnc(NS(=O)(=O)c2ccc(NCc3ccccc3O)cc2)s1 | 15.4
